The whole screen tested about 360,000 compounds, of which about 16,000 (4.4%) were called active. This list was built around the results that the source calls inconclusive (neither active nor inactive); the mix of calls is not that of the screen. Calls follow the shape of the dose curve; as a rule, active = well fitted inhibition curve with a large enough effect; inconclusive = small, poorly fitted or top-dose-only effect; inactive = no such curve, though single readings can be large or run the other way. A potency beside an inconclusive call is a rough fit, not a confirmed value. Where a structure was tested more than once in an assay, its records may differ in their call.
target: Bromodomain adjacent to zinc finger domain protein 2B (Homo sapiens) (UniProt Q9UIF8); assay: qHTS Assay for Inhibitors of BAZ2B; settings: AlphaScreen BAZ2B-H3K14Ac peptide displacement; activity change, negative = inhibition: at 114 µM (top of the series) unless noted; also: nearly all actives have a fitted effect of over 60% in size
Summary of the method: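 AlphaScreen displacement of biotin-H3(5-23)K14Ac peptide (50 nM final) from BAZ2B (50 nM final) in PBS pH 7.4, 0.01% Tween-20; complex preformed 30 min RT, then compounds (top 110 uM) 30 min RT, beads 20 min dark.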
% is scaled to controls: 0 for no effect and ±100 for the full control effect; potency is read from the fitted curve at half-maximal effect; tags tell the direction and shape of the fitted curve.

Chain of UniProt Q9UIF8 (Q9UIF8 whole entry, looked up, the tested form may be a part): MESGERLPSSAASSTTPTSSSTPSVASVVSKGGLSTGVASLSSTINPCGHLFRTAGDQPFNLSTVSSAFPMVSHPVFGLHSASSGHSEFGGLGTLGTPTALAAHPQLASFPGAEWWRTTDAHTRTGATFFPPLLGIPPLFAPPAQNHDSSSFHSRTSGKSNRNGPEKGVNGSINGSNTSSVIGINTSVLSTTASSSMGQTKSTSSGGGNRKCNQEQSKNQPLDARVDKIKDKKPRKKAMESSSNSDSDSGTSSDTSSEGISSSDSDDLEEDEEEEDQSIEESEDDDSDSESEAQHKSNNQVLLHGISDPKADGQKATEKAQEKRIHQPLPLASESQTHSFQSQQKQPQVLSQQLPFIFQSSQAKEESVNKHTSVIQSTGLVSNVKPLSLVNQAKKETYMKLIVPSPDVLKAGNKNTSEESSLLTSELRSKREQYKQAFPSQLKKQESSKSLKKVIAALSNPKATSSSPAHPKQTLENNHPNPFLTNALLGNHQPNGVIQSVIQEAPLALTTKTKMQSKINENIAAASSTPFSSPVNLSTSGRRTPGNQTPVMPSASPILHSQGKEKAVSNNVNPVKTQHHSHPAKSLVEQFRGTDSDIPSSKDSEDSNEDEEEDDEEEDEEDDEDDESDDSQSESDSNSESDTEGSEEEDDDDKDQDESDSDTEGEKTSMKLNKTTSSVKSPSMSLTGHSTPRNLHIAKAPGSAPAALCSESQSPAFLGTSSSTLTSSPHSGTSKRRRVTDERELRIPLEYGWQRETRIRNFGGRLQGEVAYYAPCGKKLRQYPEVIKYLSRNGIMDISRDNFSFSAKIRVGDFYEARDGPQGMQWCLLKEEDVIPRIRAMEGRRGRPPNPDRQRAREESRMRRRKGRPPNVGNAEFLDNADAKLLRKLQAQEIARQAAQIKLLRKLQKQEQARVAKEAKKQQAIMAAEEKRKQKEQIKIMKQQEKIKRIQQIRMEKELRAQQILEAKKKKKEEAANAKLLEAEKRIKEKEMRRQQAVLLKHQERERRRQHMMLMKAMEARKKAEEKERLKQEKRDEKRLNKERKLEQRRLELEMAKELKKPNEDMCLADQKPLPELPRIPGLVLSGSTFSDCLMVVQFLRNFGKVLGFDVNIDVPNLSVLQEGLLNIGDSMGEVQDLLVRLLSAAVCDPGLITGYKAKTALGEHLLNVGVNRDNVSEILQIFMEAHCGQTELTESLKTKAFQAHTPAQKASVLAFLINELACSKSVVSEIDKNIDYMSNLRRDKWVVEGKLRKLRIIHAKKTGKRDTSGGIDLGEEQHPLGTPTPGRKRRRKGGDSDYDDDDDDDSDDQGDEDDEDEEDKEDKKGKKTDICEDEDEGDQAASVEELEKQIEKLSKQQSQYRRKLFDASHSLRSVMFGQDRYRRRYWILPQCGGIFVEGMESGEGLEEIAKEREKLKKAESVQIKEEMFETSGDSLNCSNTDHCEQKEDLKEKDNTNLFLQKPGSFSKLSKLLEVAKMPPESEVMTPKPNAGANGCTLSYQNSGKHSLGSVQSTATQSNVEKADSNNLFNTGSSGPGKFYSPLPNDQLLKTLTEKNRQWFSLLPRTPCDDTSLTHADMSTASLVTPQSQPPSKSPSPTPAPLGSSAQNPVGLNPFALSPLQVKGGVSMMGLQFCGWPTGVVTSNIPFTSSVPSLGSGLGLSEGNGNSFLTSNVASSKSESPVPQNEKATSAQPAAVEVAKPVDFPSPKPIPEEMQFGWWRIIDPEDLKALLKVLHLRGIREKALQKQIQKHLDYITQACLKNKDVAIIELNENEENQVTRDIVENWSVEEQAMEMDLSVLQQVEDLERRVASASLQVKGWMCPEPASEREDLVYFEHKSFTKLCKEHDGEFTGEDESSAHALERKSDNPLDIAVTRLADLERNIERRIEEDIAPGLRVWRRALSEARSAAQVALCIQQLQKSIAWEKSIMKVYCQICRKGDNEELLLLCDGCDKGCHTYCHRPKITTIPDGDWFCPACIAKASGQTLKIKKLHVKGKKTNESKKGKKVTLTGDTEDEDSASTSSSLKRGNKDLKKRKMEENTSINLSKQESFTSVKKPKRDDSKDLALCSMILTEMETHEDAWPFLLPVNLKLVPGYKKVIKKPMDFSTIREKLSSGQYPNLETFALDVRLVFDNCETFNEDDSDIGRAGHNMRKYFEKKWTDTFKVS

Row | SMILES | Potency | activity change, negative = inhibition
1 | Cn1c(-c2ccc3nc(N)sc3c2)nc2cc(N)ccc21 | inconclusive: 31.6 µM [inhibitor, single point] | –
2 | O=C(NCc1cccnc1)c1ccc(Br)o1 | inconclusive: 89.1 µM [inhibitor, single point] | –
3 | COc1cccc(-c2nc(N3CCN(C)CC3)c3ccccc3n2)c1O | inconclusive: 50.1 µM [inhibitor, partial curve] | –
4 | COC(=O)c1cc(C(C)=O)n2ccccc12 | active: 50.1 µM | –
5 | CC(C)c1ccc(NC(=O)CN2C=NS(=O)(=O)c3ccccc32)cc1 | – | inactive: 3.3%
6 | CCCc1cc(=O)oc2c3c(cc(OCC(=O)NCCCn4ccnc4)c12)OC(C)(C)CC3 | inconclusive: 44.7 µM [inhibitor, partial curve] | –
7 | O=C(c1ccc(Cn2c(=S)[nH]c3ccc(N4CCOCC4)cc3c2=O)cc1)N1CCN(c2ccc(F)cc2)CC1 | – | inactive: 8.35%
8 | Cc1cccc(C)c1NC(=O)N1C(C(=O)O)CSC1C(=O)O (centres undefined) | inconclusive: 79.4 µM [inhibitor, single point] | –
9 | COc1cccc(-n2c(SCC(=O)NCCC3=CCCCC3)nc3n[nH]c(C)c3c2=N)c1 | – | inactive: 7.7%
10 | CCOc1ccc(N(C(=O)c2ccc(OC)cc2)S(=O)(=O)c2ccc3c(c2)n(C)c(=O)n3C)cc1 | inconclusive: 79.4 µM [inhibitor, partial curve] | –
11 | Nc1[nH]n(-c2ccccc2)c(=O)c1N=Nc1ccccc1[N+](=O)[O-] | – | inactive: -25%
12 | Cc1ccnc2nc(C(=O)N3CCN(S(=O)(=O)c4ccccc4)CC3)nn12 | – | inactive: 12.7%
13 | CCN(CC)Cc1cc(Nc2ccnc3cc(Cl)ccc23)ccc1O | active: 50.1 µM | –
14 | O=C(NCc1cccnc1)C1CCN(Cc2cc3ccccc3n2Cc2ccccc2)CC1 | inconclusive: 56.2 µM [inhibitor, partial curve, poor fit] | –
15 | CCOC(=O)c1cc(OC(=O)c2cccc(F)c2)n(-c2ccccc2)n1 | inconclusive: 89.1 µM [inhibitor, single point] | –
16 | O=S(=O)(c1ccc(F)cc1)N1CCC(N2CCCC2)CC1 | inconclusive: 89.1 µM [inhibitor, single point] | –
17 | COc1nccnc1NS(=O)(=O)c1ccc(N=Cc2c(C)[nH]n(-c3ccc(C)c(C)c3)c2=O)cc1 | inconclusive: 31.6 µM [inhibitor, partial curve] | –
18 | CCc1c(C)sc(NC(=O)c2cc(C)no2)c1C#N | inconclusive: 89.1 µM [inhibitor, single point] | –
19 | O=C(c1ccccc1)C1CCN(CC(=O)N2CCN(c3ccccc3)CC2)CC1 | inconclusive: 70.8 µM [inhibitor, single point] | –
